The record followed here is article PMC7324386.

The chains behind the UniProt entries cited, without tags or fusion partners.
UniProt P54609: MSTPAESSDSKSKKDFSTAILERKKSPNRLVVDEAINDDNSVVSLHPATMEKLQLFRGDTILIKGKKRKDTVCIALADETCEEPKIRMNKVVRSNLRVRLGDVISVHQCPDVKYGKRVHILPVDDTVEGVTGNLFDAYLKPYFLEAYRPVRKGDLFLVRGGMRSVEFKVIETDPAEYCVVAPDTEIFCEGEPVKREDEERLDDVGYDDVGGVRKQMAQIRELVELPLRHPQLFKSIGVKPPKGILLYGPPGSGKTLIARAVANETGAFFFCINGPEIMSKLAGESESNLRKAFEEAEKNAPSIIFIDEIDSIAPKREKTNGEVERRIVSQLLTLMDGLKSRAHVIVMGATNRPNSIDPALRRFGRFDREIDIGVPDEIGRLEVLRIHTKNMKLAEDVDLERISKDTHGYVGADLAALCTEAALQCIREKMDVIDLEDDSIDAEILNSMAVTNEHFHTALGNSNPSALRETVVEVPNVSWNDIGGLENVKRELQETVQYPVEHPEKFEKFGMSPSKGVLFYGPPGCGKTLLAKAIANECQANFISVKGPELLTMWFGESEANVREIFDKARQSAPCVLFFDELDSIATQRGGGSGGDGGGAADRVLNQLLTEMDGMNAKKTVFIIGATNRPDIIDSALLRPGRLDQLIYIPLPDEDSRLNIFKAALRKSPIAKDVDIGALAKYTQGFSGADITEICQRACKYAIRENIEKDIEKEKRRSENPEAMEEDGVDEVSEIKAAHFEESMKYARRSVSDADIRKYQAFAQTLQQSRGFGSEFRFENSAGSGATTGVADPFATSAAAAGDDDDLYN

Results are given in words; binding and its absence hold for the method and conditions named. For part of these data: Binding seen in cells or lysates may run through a third protein. Some entries that bind do so weakly or less than the wild type. Where a sequence is shown, tags or fusion partners need not be part of it.

The target of test [1] is T1, PUX4-HA (Arabidopsis thaliana) (UniProt Q8RWU7).
T1 sequence: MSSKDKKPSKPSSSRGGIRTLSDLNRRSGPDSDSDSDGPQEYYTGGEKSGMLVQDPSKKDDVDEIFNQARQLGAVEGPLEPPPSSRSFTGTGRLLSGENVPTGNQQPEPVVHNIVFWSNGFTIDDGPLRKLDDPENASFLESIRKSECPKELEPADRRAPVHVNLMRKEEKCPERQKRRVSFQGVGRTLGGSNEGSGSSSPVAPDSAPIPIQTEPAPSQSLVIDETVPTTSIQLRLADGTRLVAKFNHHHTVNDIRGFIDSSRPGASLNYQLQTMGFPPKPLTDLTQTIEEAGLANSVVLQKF
The experiment in a line: co-IP; transient coexpression in N. benthamiana leaves; protein extract immunoprecipitated with anti-HA antibody, immunoblotted with anti-HA and anti-GFP. On the technique in general: Immunoblotting shows a protein as a band on a membrane.

For test [2], the target named is CDC48A (yeast two-hybrid fusion) (Arabidopsis thaliana) (UniProt P54609). Kind of test: two-hybrid; GAL4 system (pGBKT7, pGADT7), Y187 and Y2HGold mated, diploid yeasts on QDO medium (SD-Leu/-Trp/-His/-Ade), 30 °C, 3 days.
Test [3] deals with T2, SUN1 (BiFC YFP construct) (Arabidopsis thaliana) (UniProt Q9FF75).
T2 sequence: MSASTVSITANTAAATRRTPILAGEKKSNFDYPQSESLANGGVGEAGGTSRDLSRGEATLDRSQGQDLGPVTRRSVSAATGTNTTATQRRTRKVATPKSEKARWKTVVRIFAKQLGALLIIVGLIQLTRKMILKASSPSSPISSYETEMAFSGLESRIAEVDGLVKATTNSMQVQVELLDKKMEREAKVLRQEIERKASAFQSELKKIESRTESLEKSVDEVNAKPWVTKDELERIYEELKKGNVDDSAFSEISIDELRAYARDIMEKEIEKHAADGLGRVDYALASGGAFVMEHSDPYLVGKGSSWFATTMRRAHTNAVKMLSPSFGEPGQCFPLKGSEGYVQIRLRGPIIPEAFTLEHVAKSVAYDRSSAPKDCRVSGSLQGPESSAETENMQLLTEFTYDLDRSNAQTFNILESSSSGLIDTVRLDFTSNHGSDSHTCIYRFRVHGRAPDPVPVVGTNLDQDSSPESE
Kind of test: split reporter; BiFC YFP constructs with free mCherry transiently coexpressed in N. benthamiana, epidermal cells imaged 48 h after infiltration.

For test [4], the target named is T3, KAKU4 (BiFC YFP construct) (Arabidopsis thaliana) (UniProt Q949W6).
T3 sequence: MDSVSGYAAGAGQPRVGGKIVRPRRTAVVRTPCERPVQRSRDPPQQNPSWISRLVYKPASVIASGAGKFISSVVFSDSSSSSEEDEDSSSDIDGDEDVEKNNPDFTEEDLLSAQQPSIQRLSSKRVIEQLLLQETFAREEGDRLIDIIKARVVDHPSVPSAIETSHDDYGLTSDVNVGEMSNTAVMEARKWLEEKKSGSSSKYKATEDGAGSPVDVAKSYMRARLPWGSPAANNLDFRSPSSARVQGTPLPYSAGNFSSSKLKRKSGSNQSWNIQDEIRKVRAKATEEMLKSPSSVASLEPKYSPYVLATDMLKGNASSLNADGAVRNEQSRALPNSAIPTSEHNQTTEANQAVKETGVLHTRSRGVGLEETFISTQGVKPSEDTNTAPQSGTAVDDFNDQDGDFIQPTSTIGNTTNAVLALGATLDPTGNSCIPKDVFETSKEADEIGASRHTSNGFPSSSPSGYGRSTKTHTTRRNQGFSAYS
Described as above.

B1: ARA6-GFP (protein, UniProt Q9CB01 1-202)
chain: MGCASSLPDRNSGTLSGLSNSENAVPADAKNLRVKLVLLGDSGVGKSCIVLRFVRGQFDATSKVTVGASFLSQTIALQDSTTVKFEIWDTAGQERYSALAPLYYRGAGVAVIVYDITSPESFKKAQYWVKELQKHGSPDIVMALVGNKADLHEKREVPTEDGMELAEKNGMFFIETSAKTADNINQLFEEIGKRLPRPAPSS
For B1, in test [1], the binding entry is listed as “no binding”.

B2: UFD1B (yeast two-hybrid fusion) (protein, UniProt Q9SJV0 1-340)
chain: MVLRFCCHLLTYSVSLLPPITMFFDGYHYHGTTFEQSYRCYPASFIDKPQLESGDKIIMPPSALDRLASLHIDYPMLFELRNAGIERVTHCGVLEFIAEEGMIYMPYWMMQNLLLQEGDIVRVRNVTLPKGTYVKLQPHTTDFLDISNPKAILETALRNYSCLTSGDSIMVPYNNKKYFIDIVETKPANAISIIETDCEVDFAPPLDYKEPERPTAPSAAKGPAKAEEVVDEPEPKFNPFTGSGRRLDGRPLAYEPAPASSSKGKQPVVANGNGQSSVASSSEKATRAQGKLVFGANGNRAPKEAAPKVGAAKETKKEEQEKKDEPKFQAFSGKKYSLRG
As for B2, in test [2], the binding entry is “binds”.

B3: PUX4 (yeast two-hybrid fusion) (protein, UniProt Q8RWU7 1-303)
chain: MSSKDKKPSKPSSSRGGIRTLSDLNRRSGPDSDSDSDGPQEYYTGGEKSGMLVQDPSKKDDVDEIFNQARQLGAVEGPLEPPPSSRSFTGTGRLLSGENVPTGNQQPEPVVHNIVFWSNGFTIDDGPLRKLDDPENASFLESIRKSECPKELEPADRRAPVHVNLMRKEEKCPERQKRRVSFQGVGRTLGGSNEGSGSSSPVAPDSAPIPIQTEPAPSQSLVIDETVPTTSIQLRLADGTRLVAKFNHHHTVNDIRGFIDSSRPGASLNYQLQTMGFPPKPLTDLTQTIEEAGLANSVVLQKF
As for B3, in test [2], the binding result was “binds”.

B4: PUX4 (BiFC YFP construct) (protein, UniProt Q8RWU7 1-303)
chain: MSSKDKKPSKPSSSRGGIRTLSDLNRRSGPDSDSDSDGPQEYYTGGEKSGMLVQDPSKKDDVDEIFNQARQLGAVEGPLEPPPSSRSFTGTGRLLSGENVPTGNQQPEPVVHNIVFWSNGFTIDDGPLRKLDDPENASFLESIRKSECPKELEPADRRAPVHVNLMRKEEKCPERQKRRVSFQGVGRTLGGSNEGSGSSSPVAPDSAPIPIQTEPAPSQSLVIDETVPTTSIQLRLADGTRLVAKFNHHHTVNDIRGFIDSSRPGASLNYQLQTMGFPPKPLTDLTQTIEEAGLANSVVLQKF
For the molecule B4, the binding result in test [3] is listed as “binds weakly”; in test [4], “binds”.

B5: PUX3 (BiFC YFP construct) (protein, UniProt Q9SUG6 1-302)
chain: MSSKDKKLSKPTSGRTGGIRTLSDLNRRSEPDSDSDSDGPQEYFTGGEKSGMLVQDPTKEPKHDDVDEIFNQARQLGAVEGPLEHPSSSRSFTGTGRLLSGESVPTALQQPEPVIHNIIFWSNGFTVDDGPLRKLDDPENASFLDSIRKSECPKELEPVDKRAPVHVNLMRRDEKCPEKEKLKVSFQGVGRTLGGASSSTASSQSNLTDVAAVQSPLQSLVVDETLPSTSIQLRLADGTRMVAKFNNHHTVNDIRGFIEFSRPGNPNNYTLQVMGFPPKPLTDPSQTIEQAGLASSVVIQKF
Take B5: the binding entry in test [4] is listed as “binds”.

B6: UFD1C (yeast two-hybrid fusion) (protein, UniProt Q8W570 1-311)
chain: MFYDGYAYHGTTFEQTYRCYPSSFIDKPQIESGDKIIMPPSALDRLASLQIDYPMLFELRNASTDSFSHCGVLEFIAEEGVIYIPYWMMQNLLLQEGDMVRVRNVTLPKGTYVKLQPHTTDFLDIANPKAILETALRNYSCLTVGDSIMVPYNNKKYFIDIVEAKPSNGISIIETDCEVDFAPPLDYKEPERPVAPAPAKAKEVDVAEAEPKFNPFTGSGRRLDGRPLSYEPQPGAANSNGQSHPVASSSSSGSEKATQQNRGKLVFGSNVERSTKETTKVGAGKDRKQEEEAEKEAKFQAFSGKKYSLRG
Turning to B6, in test [2], the binding entry is given as “binds”.

B7: GFP-WIT1 (protein, UniProt Q8L7E5 1-703)
chain: METETEHDRTVSVDDNDSLVPEPSSTKESFFEDLSLTGQVMNPQLSSAGEVLTKVELDFAFVSEKLVNLSLLTMQLGTRENDFESFVSKKEEDEEEPSSNVDDDDDSAEKALEFDLLSSILNSEVKELESLLGFLQNEIQSARVMISPFQHDGEAFLDLEGKLNDTEQSLGQLMEQVVEMKKQSSNFQRLSSGLDEQGSWSGGQTSVSQNDGEFGDLSAKINMQTADQQRNVLRMLEKSLAKEMELEKKLSESRNTERELEMKLYSSEQDVVYMEEVTEDAFSRWLEADNAAEVFKGTSKEMSGKLQILQFNLSGSFKREDNLKSKLVDSKERLEAKECALHKLDSSNARLADFLVAQTEGLKESLQEAEEKLILLNTENSTLSEKVSSLEEQLNEYGIQTEDADATSGALITDLERINEELKDKLAKTEARAEETESKCKILEESKKELQDELGNFRDKGFTIHKLASLEKHLRDSDLQLEHAVAAVEASKEKQNLLYSTVSDMEDVIEDLKSKVLKAENRADITEEKLIMVSESNAEVNEELKFFKGRLKEGEKYLQQAEERKLRTAKDIGVHNKIMKKLVMQLAAERERLHKQITNLSRENCVLMVKLKKVGKTGYMESGNGSEVSPKSDQNASSCHQGSRLQATFISLTNPEEEETGSKSDIGSVRRLDVGALRFKHILVAILVILISSIAYVISQQNM
For B7, the binding result in test [1] is on record as “no binding”.

B8: PUX5 (BiFC YFP construct) (protein, UniProt Q7Y175 1-421)
chain: MATETNENLINSFIEITSSSREEANFFLESHTWNLDAAVSTFLDNDAAAAAEPNPTGPPPPSSTIAGAQSPSQSHSPDYTPSETSPSPSRSRSASPSSRAAPYGLRSRGGAGENKETENPSGIRSSRSRQHAGNIRTFADLNRSPADGEGSDSDEANEYYTGGQKSGMMVQDPKKVKDVDELFDQARQSAVDRPVEPSRSASTSFTGAARLLSGEAVSSSPQQQQQEQPQRIMHTITFWLNGFTVNDGPLRGFSDPENAAFMNSISRSECPSELEPADKKIPVHVDLVRRGENFTEPPKPKNPFQGVGRTLGASGSGSSSAPQASSAPMNVAPAPSRGLVVDPAAPTTSIQLRLADGTRLVSRFNNHHTVRDVRGFIDASRPGGSKEYQLLTMGFPPKQLTELDQTIEQAGIANAVVIQKF
As for B8, the binding entry in test [4] is reported as “binds”.
